Data as given in the RNAGym collection of RNA variant scans (doi:10.7554/elife.90254).
The source gives no read counts; variants with many changes may rest on few reads.

B1: LINE1-full (parent)
chain: UACGUAGGUGGUUUUCCCCUGAUAGUGCUAAGGGGGCCUGGAAGUUUGGACUGGGCAGAGCUCAACACAGCGUGGCAAAGUGGCUGUGGCUAGACUGCCUCUCUGGAUUCCUCGUCACUCAGCAGGGCAUCUCUGAGAGAAAUGCC

Variants of: B1
Assay: self-cleavage, relative activity (ratio to wild type); higher = more cleavage; in vitro, sequencing; the parent is a self-cleaving ribozyme
Variant G82A C116A A136G has a self-cleavage of 1.58. Work on G75A U100C G114A yielded a self-cleavage of 1.43. With A78G G88A A136G the self-cleavage was 0.07. A77C U85A U115A showed a self-cleavage of 0.04. U85A U87C A129G showed a self-cleavage of 0.08. Work on A78G U87A U130C A140G yielded a self-cleavage of 0.12. Work on G83U A121U U132C yielded a self-cleavage of 0.54. With U87C G125C A142G the self-cleavage was 0. Work on A77G U100A A107U yielded a self-cleavage of 1.92. Variant U85C U104A A140G has a self-cleavage of 0.02. A78G U81C A117U showed a self-cleavage of 0.84. Variant A77G U115C A117U A140G has a self-cleavage of 2.87. With A79U C90A A107G U119C the self-cleavage was 0.04. In the case of A78G U87C G125A, the self-cleavage is reported as 0.15. Variant A77U U112C A138G has a self-cleavage of 1.49. For G83A U96C U134C, the self-cleavage was 0.08. A78G U100C A136G gave a self-cleavage of 1.81. Work on G82A A129U G144U yielded a self-cleavage of 2.1. For A79G U96C U143C, the self-cleavage was 0. Work on A77G U96C U109C yielded a self-cleavage of 0. With A79U U100C U143A the self-cleavage was 2.73. Variant A77U A79G U134C has a self-cleavage of 1.04. With A77G U91C A107G A129U the self-cleavage was 0. In the case of A78U C84U A138G A140G, the self-cleavage is reported as 0.22. In the case of U81A U87C U119C U143C, the self-cleavage is reported as 0.45. Variant A77G U119C A138G has a self-cleavage of 1.75. In the case of U87C U102C U134C A138G, the self-cleavage is reported as 0. U91A A94G U96C C113U showed a self-cleavage of 0.06. Variant G83A U112C A124G A136G has a self-cleavage of 0.24. With A77U U115C A121C the self-cleavage was 1.62. In the case of A77G U81C U87C G97U U100C A142U C145U, the self-cleavage is reported as 0. U87C U104C U119C showed a self-cleavage of 0. A79G U100C C103A gave a self-cleavage of 0. Variant A79G U102C A138G has a self-cleavage of 0.71. With G75U A79G U85G the self-cleavage was 0.1. With A77U A79G U104A the self-cleavage was 1.43. G83A U96C A142G gave a self-cleavage of 0.1. A77G U85C A107U A129U A136U gave a self-cleavage of 0.09. For G83A U108C A121U C131U U134C A141G, the self-cleavage was 2.4. Variant A78G G82A U100C has a self-cleavage of 1.98. Work on U85C C113A U119C A141G yielded a self-cleavage of 0.17. G80A U115C U143C gave a self-cleavage of 2.69. Work on G82U U109A A140G yielded a self-cleavage of 0.43. With U81C A124C A141G the self-cleavage was 0.61. A79G U104A U115A gave a self-cleavage of 1.53. For A79G U104A U115C, the self-cleavage was 1.84. With A79G U96A A136G the self-cleavage was 0.08. Variant U87C U115A U143A has a self-cleavage of 0.19. Variant U81A U85A U108C has a self-cleavage of 0.14. For A79G U119A U132C, the self-cleavage was 0.9. For A78G G80U A136G A141G, the self-cleavage was 2.72. Work on G83A U109C U115C yielded a self-cleavage of 0.46. Variant G82A U104C A136G has a self-cleavage of 1.73. Work on A79C U81C U96A yielded a self-cleavage of 0.05. Variant A77G U130C A136U has a self-cleavage of 2.81. A77G U104A A136G showed a self-cleavage of 2.52. With U85A U102A A141G the self-cleavage was 0.14. In the case of U87G U104A A124G U130G, the self-cleavage is reported as 0. In the case of U81G U85C U108C A117U, the self-cleavage is reported as 0.22. Variant U81C U96C U109A has a self-cleavage of 0. Work on A78G C116U A140G yielded a self-cleavage of 0.89. Variant U81C U130C C145U has a self-cleavage of 0.62. U87C U109C U112A showed a self-cleavage of 0.45. For A79G C90U A92G, the self-cleavage was 0.06. With U87C C113A U132C the self-cleavage was 0.06. In the case of G83U A94U U100A, the self-cleavage is reported as 0.18. In the case of U87A U104A A136U A142G U143A, the self-cleavage is reported as 0.11. Work on A79G U108C C113A U134C yielded a self-cleavage of 1.79. With A77G U87C U112C the self-cleavage was 1.15. A78G U115C G122A showed a self-cleavage of 0. In the case of U81A A117G A124U A136G, the self-cleavage is reported as 2.01. Variant C84U A129U U132C A140G has a self-cleavage of 0.13. In the case of G86A U115C A138G, the self-cleavage is reported as 0.07. For U81G U85C U108C, the self-cleavage was 0. For A79G U96C A138G A141G, the self-cleavage was 0.61. With A78U U85C U109C the self-cleavage was 0.1. For A77G U96A A142G, the self-cleavage was 0.02. Variant U85A U119C A138U has a self-cleavage of 0.13. Work on A77C G135A A141G U143C yielded a self-cleavage of 1.11. Work on A78G U109A U115G yielded a self-cleavage of 0.53. Work on A77U U102C A140G yielded a self-cleavage of 0.34. Variant G89A G125U A142G has a self-cleavage of 0.03. In the case of U91A G125A U134C, the self-cleavage is reported as 0.51. For U85C A94G U108C, the self-cleavage was 0. For A79G U112A A136G, the self-cleavage was 2.03. With G86A A129G A141G the self-cleavage was 0.26. For U85C U102C C113U, the self-cleavage was 0.22. In the case of C76U U104C U143C, the self-cleavage is reported as 2.82. G86A U119C A121U gave a self-cleavage of 0.09. With A79G A124G A140G the self-cleavage was 0.39. In the case of U91A U109C A138G, the self-cleavage is reported as 0.64. U87C U115C A138G showed a self-cleavage of 0. Work on A78G A94G C99U yielded a self-cleavage of 0.17. With A78G G106A U108A A141U the self-cleavage was 1.41. With U81A U91A A136C the self-cleavage was 0.79. With U81G A94U U130C C146U the self-cleavage was 0.37. Work on U81C U85C A142G yielded a self-cleavage of 0.77. Work on C84U U87C C103U U104C U130C G135A A136U yielded a self-cleavage of 0.06. In the case of A79G U102C U104A A141G, the self-cleavage is reported as 2.22. Work on C84U U91C U102C yielded a self-cleavage of 0.18. In the case of U85C G89A C128G A136U, the self-cleavage is reported as 0.03. Work on U87A A117G U119A A138G A142C yielded a self-cleavage of 0. U81C U100C U108C G137U C145U gave a self-cleavage of 1.15. For A77U A136U C146U, the self-cleavage was 0.94. U85A A124U U130C U132A gave a self-cleavage of 0.11. Variant A77G A121G A140G has a self-cleavage of 1.78. In the case of A77G A78G C103A, the self-cleavage is reported as 2.9. Variant U85A U96C U134A G139U has a self-cleavage of 0.12. In the case of A77G C99U U130A, the self-cleavage is reported as 1. In the case of U91C A121G A140G, the self-cleavage is reported as 0.37. U85C U104A A129G gave a self-cleavage of 0.14. A78U A121U G127A showed a self-cleavage of 1.97. A77G U109C C118A C120U gave a self-cleavage of 1.99. Variant U81A A124U A141G has a self-cleavage of 2.51. U87C A94G C101G gave a self-cleavage of 0. U81A U104C U132C gave a self-cleavage of 2.68. U87A U130A U134A showed a self-cleavage of 0.15. In the case of G83A C128U A138G, the self-cleavage is reported as 0.77. With G83A U119C A129U the self-cleavage was 1.45. Variant A79G A92U A138G has a self-cleavage of 0.32. For A79G U85G U132C, the self-cleavage was 0.31. U85C U104C U115C gave a self-cleavage of 0. Work on A77U U104C A107G yielded a self-cleavage of 1.79. With U85C U87C U132C the self-cleavage was 0. A78U U130C U143A gave a self-cleavage of 2.15. With A77U U85C A140G the self-cleavage was 0.21. With A77G U85C A142G the self-cleavage was 0.5. A77G U102C A129U showed a self-cleavage of 2.36. In the case of U87A U96C A140U, the self-cleavage is reported as 0.09. U87G A117G A138U A141G gave a self-cleavage of 0.1. For C76A U115C U132C, the self-cleavage was 1.86. For U85C U100C U132A, the self-cleavage was 0.81. Variant A77G A94U A121U U132C A136G has a self-cleavage of 0.74. U87C G97U A107G showed a self-cleavage of 0.02. Work on A77G A141G G144A yielded a self-cleavage of 2.84. Variant G80A U91A A92G has a self-cleavage of 0.08. Variant A79G U102A A140G has a self-cleavage of 1.24. In the case of U85G U108G G122C G126A U132C, the self-cleavage is reported as 0.14. For A77U G97A U143C, the self-cleavage was 0.05. With A77G U108A U112A the self-cleavage was 1.87. In the case of A79U C84U U87C C118G, the self-cleavage is reported as 0.04. For U85C A107G U108A A142C, the self-cleavage was 0.34. Variant A77G U87C U134A has a self-cleavage of 0. Variant A79G U130C A136U A142G has a self-cleavage of 1.59. Work on A78G U100C U143C yielded a self-cleavage of 2.57. Variant C90A U91C U112C has a self-cleavage of 0.1. A79G U112A U143A gave a self-cleavage of 2.14. With U85C U119G A136U the self-cleavage was 0.08. With A79G G83A U109C the self-cleavage was 0.44. U85A U87C A121U gave a self-cleavage of 0.05. Variant A79U U130C U134C has a self-cleavage of 2.76. A79U U130C U134A showed a self-cleavage of 2.14. U81A A124U U143C showed a self-cleavage of 2.2. In the case of A77G U96G A142U, the self-cleavage is reported as 0.11. In the case of C84U U108C A140U, the self-cleavage is reported as 0.09. Variant U85C U115C A138G has a self-cleavage of 0. For U85A A94G A121G U130C A138G, the self-cleavage was 0. With A78G U102A A142G the self-cleavage was 1.47. Work on U91C U102A C103A yielded a self-cleavage of 0.75. A79G U96C U130C A141G gave a self-cleavage of 0.28. In the case of A79G A94G U96C, the self-cleavage is reported as 0. Variant U91C U112A C128U has a self-cleavage of 0.82. With U87C U108C A124G the self-cleavage was 0. With G89A A121U A124G A129G the self-cleavage was 0.03. Variant A79G G86A A94G U100C A129G A142G has a self-cleavage of 0.3. U87C C113U U130C gave a self-cleavage of 0.2. A77U A140U C145A showed a self-cleavage of 1.23.
